Test results: the supplement of paper PMC9151546
Many values rest on one well or one pass, so single values are uncertain.

Experiments:
CHO-K1 [1] = test: relative survival (nuclei to bead ratio vs DMSO control) (% of vehicle control); higher = more surviving cells
CHO-K1 [2] = test: micronucleus frequency (% of nucleated events); higher = more micronuclei (genotoxic)
CHO-K1 [3] = test: hypodiploid nuclei frequency (% of nucleated events); higher = more hypodiploid events (aneugenic)
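For hypodiploid nuclei frequency (% of nucleated events) in this document: hypodiploid nuclei gated on a flow cytometer with 488 nm excitation after SYTOX Green staining, cultures at 37 °C, positive controls vinblastine without S9 and cyclophosphamide with S9.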
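For micronucleus frequency (% of nucleated events) in this document: cells lysed with nuclei stained by SYTOX Green, then micronucleus-gated events counted against nucleated events by flow cytometry with 488 nm excitation.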
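For relative survival (nuclei to bead ratio vs DMSO control) in this document: Lysed-cell nuclei stained with SYTOX Green and counted against counting beads by flow cytometry at 488 nm excitation, with vinblastine (no S9) and cyclophosphamide (plus S9) as positive controls.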

O=C(O)C(Cl)(Cl)Cl [Trichloroacetic acid]
Settings | hypodiploid nuclei frequency, CHO-K1 [3] [%] | micronucleus frequency, CHO-K1 [2] [%] | relative survival, CHO-K1 [1]
concentration: 4.5 (µM), S9 metabolic activation: with S9, exposure time: 3-4 hours | 0.22 | 1.22 | 96.7
concentration: 4.5 (µM), S9 metabolic activation: without S9, exposure time: 24 hours | 0.9 | 2.02 | 120
concentration: 5.63 (µM), S9 metabolic activation: with S9, exposure time: 3-4 hours | 0.14 | 1 | 94.3
concentration: 5.63 (µM), S9 metabolic activation: without S9, exposure time: 24 hours | 0.62 | 1.34 | 122
concentration: 7.04 (µM), S9 metabolic activation: with S9, exposure time: 3-4 hours | 0.14 | 1.46 | 82
concentration: 7.04 (µM), S9 metabolic activation: without S9, exposure time: 24 hours | 0.72 | 1.46 | 136
concentration: 8.8 (µM), S9 metabolic activation: with S9, exposure time: 3-4 hours | 0.14 | 1.14 | 96.2
concentration: 8.8 (µM), S9 metabolic activation: without S9, exposure time: 24 hours | 0.54 | 1.46 | 107
concentration: 11 (µM), S9 metabolic activation: with S9, exposure time: 3-4 hours | 0.08 | 1.14 | 114
concentration: 11 (µM), S9 metabolic activation: without S9, exposure time: 24 hours | 0.64 | 1.58 | 141
concentration: 13.7 (µM), S9 metabolic activation: with S9, exposure time: 3-4 hours | 0.2 | 0.96 | 83.9
concentration: 13.7 (µM), S9 metabolic activation: without S9, exposure time: 24 hours | 0.54 | 2.12 | 120
concentration: 17.2 (µM), S9 metabolic activation: with S9, exposure time: 3-4 hours | 0.26 | 1.38 | 101
concentration: 17.2 (µM), S9 metabolic activation: without S9, exposure time: 24 hours | 0.74 | 1.8 | 95.4
concentration: 21.5 (µM), S9 metabolic activation: with S9, exposure time: 3-4 hours | 0.14 | 1.14 | 108
concentration: 21.5 (µM), S9 metabolic activation: without S9, exposure time: 24 hours | 0.7 | 1.8 | 93.8
concentration: 26.8 (µM), S9 metabolic activation: with S9, exposure time: 3-4 hours | 0.08 | 1.18 | 65.9
concentration: 26.8 (µM), S9 metabolic activation: without S9, exposure time: 24 hours | 0.98 | 3.22 | 115
concentration: 33.6 (µM), S9 metabolic activation: with S9, exposure time: 3-4 hours | 0.16 | 0.88 | 83.9
concentration: 33.6 (µM), S9 metabolic activation: without S9, exposure time: 24 hours | 19.6 | 2.74 | 76.8
concentration: 41.9 (µM), S9 metabolic activation: with S9, exposure time: 3-4 hours | 0.14 | 0.86 | 78.9
concentration: 41.9 (µM), S9 metabolic activation: without S9, exposure time: 24 hours | 1.2 | 1.18 | 108
concentration: 52.4 (µM), S9 metabolic activation: with S9, exposure time: 3-4 hours | 0.24 | 1.28 | 82.2
concentration: 52.4 (µM), S9 metabolic activation: without S9, exposure time: 24 hours | 1.02 | 1.78 | 132
concentration: 65.5 (µM), S9 metabolic activation: with S9, exposure time: 3-4 hours | 0.14 | 0.86 | 86.2
concentration: 65.5 (µM), S9 metabolic activation: without S9, exposure time: 24 hours | 1.54 | 1.72 | 98.5
concentration: 81.9 (µM), S9 metabolic activation: with S9, exposure time: 3-4 hours | 0.24 | 1.34 | 96.2
concentration: 81.9 (µM), S9 metabolic activation: without S9, exposure time: 24 hours | 1.02 | 1.92 | 141
concentration: 102 (µM), S9 metabolic activation: with S9, exposure time: 3-4 hours | 0.3 | 1.02 | 94.5
concentration: 102 (µM), S9 metabolic activation: without S9, exposure time: 24 hours | 1.08 | 2.12 | 135
concentration: 128 (µM), S9 metabolic activation: with S9, exposure time: 3-4 hours | 0.16 | 0.94 | 99.8
concentration: 128 (µM), S9 metabolic activation: without S9, exposure time: 24 hours | 1.14 | 1.74 | 121
concentration: 160 (µM), S9 metabolic activation: with S9, exposure time: 3-4 hours | 0.22 | 1.06 | 87.6
concentration: 160 (µM), S9 metabolic activation: without S9, exposure time: 24 hours | 1.06 | 2.24 | 85.6
concentration: 200 (µM), S9 metabolic activation: with S9, exposure time: 3-4 hours | 0.26 | 1.98 | 123
concentration: 200 (µM), S9 metabolic activation: without S9, exposure time: 24 hours | 1.64 | 2.38 | 74.3

ClC(Cl)=C(c1ccc(Cl)cc1)c1ccc(Cl)cc1 [p,p'-DDE]
Settings | hypodiploid nuclei frequency, CHO-K1 [3] [%] | micronucleus frequency, CHO-K1 [2] [%] | relative survival, CHO-K1 [1]
concentration: 4.5 (µM), S9 metabolic activation: with S9, exposure time: 3-4 hours | 0.24 | 1.56 | 183
concentration: 4.5 (µM), S9 metabolic activation: without S9, exposure time: 24 hours | 0.54 | 1.32 | 97.5
concentration: 5.63 (µM), S9 metabolic activation: with S9, exposure time: 3-4 hours | 0.3 | 1.32 | 141
concentration: 5.63 (µM), S9 metabolic activation: without S9, exposure time: 24 hours | 0.48 | 1.18 | 128
concentration: 7.04 (µM), S9 metabolic activation: with S9, exposure time: 3-4 hours | 0.12 | 1.14 | 176
concentration: 7.04 (µM), S9 metabolic activation: without S9, exposure time: 24 hours | 0.7 | 1.32 | 111
concentration: 8.8 (µM), S9 metabolic activation: with S9, exposure time: 3-4 hours | 0.32 | 2.16 | 175
concentration: 8.8 (µM), S9 metabolic activation: without S9, exposure time: 24 hours | 0.74 | 1.84 | 104
concentration: 11 (µM), S9 metabolic activation: with S9, exposure time: 3-4 hours | 0.22 | 1.44 | 187
concentration: 11 (µM), S9 metabolic activation: without S9, exposure time: 24 hours | 0.74 | 2.26 | 117
concentration: 13.7 (µM), S9 metabolic activation: with S9, exposure time: 3-4 hours | 0.2 | 1.12 | 153
concentration: 13.7 (µM), S9 metabolic activation: without S9, exposure time: 24 hours | 0.54 | 2.2 | 140
concentration: 17.2 (µM), S9 metabolic activation: with S9, exposure time: 3-4 hours | 0.26 | 1.52 | 157
concentration: 17.2 (µM), S9 metabolic activation: without S9, exposure time: 24 hours | 0.94 | 2.38 | 97.9
concentration: 21.5 (µM), S9 metabolic activation: with S9, exposure time: 3-4 hours | 0.2 | 1.74 | 140
concentration: 21.5 (µM), S9 metabolic activation: without S9, exposure time: 24 hours | 0.56 | 1.5 | 106
concentration: 26.8 (µM), S9 metabolic activation: with S9, exposure time: 3-4 hours | 0.38 | 2.12 | 196
concentration: 26.8 (µM), S9 metabolic activation: without S9, exposure time: 24 hours | 1.1 | 1.94 | 80.8
concentration: 33.6 (µM), S9 metabolic activation: with S9, exposure time: 3-4 hours | 0.32 | 2 | 144
concentration: 33.6 (µM), S9 metabolic activation: without S9, exposure time: 24 hours | 1.02 | 1.6 | 110
concentration: 41.9 (µM), S9 metabolic activation: with S9, exposure time: 3-4 hours | 0.24 | 2.24 | 166
concentration: 41.9 (µM), S9 metabolic activation: without S9, exposure time: 24 hours | 1.16 | 2.12 | 104
concentration: 52.4 (µM), S9 metabolic activation: with S9, exposure time: 3-4 hours | 0.44 | 2.28 | 156
concentration: 52.4 (µM), S9 metabolic activation: without S9, exposure time: 24 hours | 1.06 | 1.82 | 105
concentration: 65.5 (µM), S9 metabolic activation: with S9, exposure time: 3-4 hours | 0.26 | 1.76 | 189
concentration: 65.5 (µM), S9 metabolic activation: without S9, exposure time: 24 hours | 0.9 | 2.38 | 93.2
concentration: 81.9 (µM), S9 metabolic activation: with S9, exposure time: 3-4 hours | 0.3 | 2.68 | 196
concentration: 81.9 (µM), S9 metabolic activation: without S9, exposure time: 24 hours | 1 | 3.02 | 76
concentration: 102 (µM), S9 metabolic activation: with S9, exposure time: 3-4 hours | 0.3 | 1.48 | 141
concentration: 102 (µM), S9 metabolic activation: without S9, exposure time: 24 hours | 1.4 | 2.74 | 77.4
concentration: 128 (µM), S9 metabolic activation: with S9, exposure time: 3-4 hours | 0.26 | 1.84 | 127
concentration: 128 (µM), S9 metabolic activation: without S9, exposure time: 24 hours | 1.3 | 1.98 | 64.3
concentration: 160 (µM), S9 metabolic activation: with S9, exposure time: 3-4 hours | 0.28 | 1.86 | 109
concentration: 160 (µM), S9 metabolic activation: without S9, exposure time: 24 hours | 1.24 | 2.24 | 61.1
concentration: 200 (µM), S9 metabolic activation: with S9, exposure time: 3-4 hours | 0.36 | 3.96 | 70.5
concentration: 200 (µM), S9 metabolic activation: without S9, exposure time: 24 hours | – | – | 12.1
